Measured values published in paper PMC4336329 (PLoS ONE, 2015).
In all, about 310,000 compounds went through this assay and about 14,000 (4.5%) showed an effect of 50% or more. Effects have a minus sign here. The list shows a part of the results.

Molecular target: human ether-à-go-go-related gene (hERG) potassium channel (human, UniProt Q12809)
Experiment: primary screen, population patch clamp on CHO cells stably expressing hERG
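Note: peak tail current of the secondary pulse compared with the same well before compound.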

Sequence of human ether-à-go-go-related gene (hERG) potassium channel (Q12809 whole entry, looked up): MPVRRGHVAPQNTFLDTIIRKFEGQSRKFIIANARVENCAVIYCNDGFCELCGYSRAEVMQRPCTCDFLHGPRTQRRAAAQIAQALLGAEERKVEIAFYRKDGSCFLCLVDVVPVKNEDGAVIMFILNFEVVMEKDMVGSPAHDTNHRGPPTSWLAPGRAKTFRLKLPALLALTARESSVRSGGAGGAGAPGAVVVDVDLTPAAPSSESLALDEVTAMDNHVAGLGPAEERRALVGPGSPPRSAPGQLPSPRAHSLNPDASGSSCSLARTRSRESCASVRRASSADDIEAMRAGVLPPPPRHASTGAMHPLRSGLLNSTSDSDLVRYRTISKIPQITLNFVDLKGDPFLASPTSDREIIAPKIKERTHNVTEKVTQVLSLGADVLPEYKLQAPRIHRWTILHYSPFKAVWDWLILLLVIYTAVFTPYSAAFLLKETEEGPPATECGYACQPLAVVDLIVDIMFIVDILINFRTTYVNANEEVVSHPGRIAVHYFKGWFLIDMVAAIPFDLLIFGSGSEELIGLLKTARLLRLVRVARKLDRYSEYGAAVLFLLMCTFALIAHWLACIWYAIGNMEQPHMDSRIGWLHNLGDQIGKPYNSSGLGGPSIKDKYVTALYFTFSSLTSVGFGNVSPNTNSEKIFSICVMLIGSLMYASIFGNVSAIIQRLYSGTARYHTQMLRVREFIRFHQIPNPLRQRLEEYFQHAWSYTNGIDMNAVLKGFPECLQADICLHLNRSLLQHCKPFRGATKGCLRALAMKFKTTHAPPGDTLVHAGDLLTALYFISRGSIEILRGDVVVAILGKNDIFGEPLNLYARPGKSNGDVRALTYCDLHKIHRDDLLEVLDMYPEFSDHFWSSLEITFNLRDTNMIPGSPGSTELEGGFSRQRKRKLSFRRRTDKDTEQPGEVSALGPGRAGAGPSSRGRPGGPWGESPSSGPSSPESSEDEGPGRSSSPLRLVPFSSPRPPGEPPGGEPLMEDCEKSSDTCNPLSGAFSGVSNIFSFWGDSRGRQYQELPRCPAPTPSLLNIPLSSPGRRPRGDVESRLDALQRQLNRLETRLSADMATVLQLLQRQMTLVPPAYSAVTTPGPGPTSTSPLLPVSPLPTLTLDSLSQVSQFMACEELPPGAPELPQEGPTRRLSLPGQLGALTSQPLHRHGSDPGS

Compound | hERG current change (%, negative = inhibition) at 10uM [%]
Cc1ccc(-c2ocnc2C(=O)N2CCOCC2)cc1 | 21.4
COc1cccc(OC)c1C(=O)N1CCN(Cc2ccccc2C)CC1 | -0.823
COC(C(=O)NCc1ccc(C)cc1)c1ccccc1 (stereo not drawn) | 6.39
Cc1cccc(CCNC(=O)CC2C(=O)NCCN2Cc2ccc(F)c(F)c2)n1 (stereo not drawn) | 22.3
O=C(Cn1cnc2c(cnn2-c2ccccc2)c1=O)NCc1ccccc1 | 2.06
CCN(CC)C(=O)c1ccc(COc2ccccc2Cl)cc1 | -17.2
Cc1cc(-c2nc3ncccc3o2)ccc1NC(=S)NC(=O)c1ccco1 | 6.62
CCOCCCNC(=O)C(NC(=O)Cc1c[nH]c2ccccc12)c1ccccc1 (stereo not drawn) | -2.36
O=C(COc1cccc(-n2cnnn2)c1)Nc1ccccc1 | -26.4
O=C(CCn1nc(-c2ccc(Cl)cc2)ccc1=O)N1CCC2(CC1)OCCO2 | -39.8
N#Cc1c(SCC(=O)Nc2ccc(Cl)cc2Cl)sc2c(O)cc(=O)[nH]c12 | 2.27
Cc1cccc(NC(=O)c2cccnc2Oc2ccccc2)c1C(=O)O | 24.5
C[C@@H]1O[C@@H](O[C@H]2C[C@@H](O)[C@]3(CO)[C@@H]4C(CC[C@]3(O)C2)[C@@]2(O)CC[C@H](C3COC(=O)C3)[C@@]2(C)C[C@H]4O)[C@H](O)[C@H](O)[C@H]1O (stereo partly drawn) | 14.5
O=S1(=O)Nc2c(ccc3cccnc23)-c2ccccc21 | 9.9
CCOP(=O)(OCC)C(NC(=O)NC)C(N)=O (stereo not drawn) | 20
Cc1nn(CC(=O)Nc2ccc3nc4n(c(=O)c3c2)CCCC4)c(C)c1[N+](=O)[O-] | -6.78
COc1cc(NC(=O)COC(C)=O)cc(OC)c1OC | 21.9
CCOc1ccc(CNC(=S)N/N=C/c2ccc(OC)c(OC)c2)cc1 | -6.58
Cc1ccc(-c2ccc(=O)n(Cc3cccc(Br)c3)n2)cc1 | 18.3
C=CCN1C(=O)C(Cc2ccc(F)cc2)S/C1=N/N=C/c1cccs1 (stereo not drawn) | -9.46
CCOC(=O)c1[nH]cnc1C(=O)Nc1cccc(OC)c1 | 2.14

Compound | hERG current change (%, negative = inhibition) at 10uM [%]
Cc1onc(-c2c(F)cccc2Cl)c1C(=O)NCCc1ccncc1 | 0.179
O=C(NC12CC3CC(CC(C3)C1)C2)c1ccccc1 | 6.99
CCCN(CCC)Cc1c(C(=O)N/N=C/C(C)=C\c2ccco2)nnn1-c1nonc1N | -11.4
CCN(CC)S(=O)(=O)c1ccc2oc(C(=O)NCCCN3CCOCC3)c(C)c2c1 | -11.3
O=C(O)CC(CC(=O)Nc1ccc(-c2ccccc2)cc1)c1ccccc1 (stereo not drawn) | 9.93
NC(=O)CC(NC(=O)c1cccc(Br)c1)c1ccc(NCC2CC2)c([N+](=O)[O-])c1 (stereo not drawn) | -65.4
COc1ccc(-c2nnc(SCC(=O)Nc3sc4c(c3C#N)CCCC4)n2-c2ccccc2)cc1 | 15.4
O=C(NCCC1=CCCCC1)C(=O)c1c[nH]c2ccccc12 | 42.2
CC(C)(C)OC(=O)N/N=C/c1c[nH]c2ccccc12 | -3.37
CCC(=O)Nc1sc(Cc2ccccc2)c(C)c1C(N)=O | -22.8
O=C(Nc1cccc(-c2cnc3ccccc3n2)c1)c1ccccc1 | -0.281
COc1ccc(NC(=O)c2cccc(S(=O)(=O)NCc3ccco3)c2)c(OC)c1 | -21.2
CCn1c(=O)c(C(=O)NCc2ccccc2Cl)c(O)c2ccccc21 | 18.1
COc1ccc(S(=O)(=O)N2CCCC2)cc1C(=O)O | 30.4
COc1ccc(N/C=C\C(=O)c2ccc(C)cc2)cc1OC | 17.7
CCOc1cc(C(=S)N2CCCCC2)ccc1OS(=O)(=O)c1ccc(Cl)cc1 | -1.37
O=C1CCCC(O)=C1N=Nc1ccc2ncsc2c1 | -19.3
COc1cc(OC)cc(C(=O)NCCCNC(=O)c2ccccn2)c1 | 17.8
CN1CCc2c(sc(NC(=O)c3cc(Cl)sc3Cl)c2C(N)=O)C1.Cl | -59.8
COCCNC(=O)c1cn(C)c(=O)c2cc(OC)c(OC)cc12 | 19.3
CC(=O)Nc1nnc(CCN(CCc2nnc(NC(C)=O)s2)[N+](=O)[O-])s1 | 14.3

Compound | hERG current change (%, negative = inhibition) at 10uM [%]
CCC(c1nnnn1CCOC)N(Cc1cc2cc(C)c(C)cc2[nH]c1=O)CC1CCCO1 (stereo not drawn) | -8.4
CC(C)(C)c1cc(NC(=O)COc2ccc(Br)cc2)n(-c2ccccc2)n1 | 7.35
Cc1ccc(-c2noc(CCC(=O)NCCN3CCN(Cc4ccccc4)CC3)n2)cc1 | -49
O=C(Cc1cccs1)Nc1nnc(COc2ccccc2)s1 | 3.05
COc1ccc(C(=O)N2CCN(C(C)=O)CC2)cc1S(=O)(=O)N1CCOCC1 | 22.5
O=C(Cc1ccc(S(=O)(=O)N2CCOCC2)s1)N1CCN(c2cccc(C(F)(F)F)c2)CC1 | -31.7
O=C(Nc1nc2c(Cl)ccc(Cl)c2s1)C1CC1 | -0.575
O=C(NCCc1ccccc1)/C(=N\O)c1ccccc1 | 7.7
Nc1ccc(C(=O)N2N=C(c3ccccc3)CC2(O)C(F)(F)F)cc1 (stereo not drawn) | -22.9
COc1cccc2c1C(=O)c1c(O)c3c(c(O)c1C2=O)C[C@](O)(C(C)=O)C[C@H]3O[C@@H]1C[C@@H](N)[C@@H](O)[C@@H](C)O1.Cl | -5.69
COC(=O)C1=C(C(=O)OC)[C@@H]2Nc3ccccc3[C@@]23C[C@@H](C(=O)OC)N(C(=O)C2CCC2)C3=N1 | -31.5
O=C(O)C(=O)O.OC(CNCC(c1ccco1)N1CCCCC1)c1ccccc1 (stereo not drawn) | -1.87
Nc1cc(Cl)ccc1Oc1ccc2ccccc2c1 | -3.43
NNc1nc(-c2ccccc2Cl)nc2ccccc12 | 11.1
C=CCSC1=N/C(=C\c2cc(OCC)c(OC(C)=O)c([N+](=O)[O-])c2)C(=O)S1 | 2.96
COc1cc(C(O)CN)ccc1O.Cl (stereo not drawn) | 3.21
CCc1ccc(NC(=O)CSCCO)cc1 | 6.8
CCCN(CCC)C(=O)CSc1nc2ccccc2c(=O)n1C1CCCC1 | -36.1
CCC1CN(C(=O)N2CCC(C(=O)NCc3ccco3)CC2)c2ccccc2O1 (stereo not drawn) | 0.0731
CC(C)(C)c1nc2c(s1)CCc1onc(-c3ccc(Br)cc3)c1-2 | 11.5
COc1ccc(N(C)C(=O)CN(C)S(=O)(=O)c2ccc3c(c2)c(=O)n(C)c(=O)n3C)c(OC)c1 | -11.8

Compound | hERG current change (%, negative = inhibition) at 10uM [%]
COc1cccc(OC)c1OCCOCCn1cnc2ccccc2c1=O | 3.5
Cc1c(CC(=O)N2C[C@H]3C[C@@H](C2)c2cccc(=O)n2C3)c(=O)oc2cc(O)c(Cl)cc12 | 9.44
COc1cc(C)ccc1OCCCCN1CC(C)OC(C)C1.O=C(O)C(=O)O (stereo not drawn) | -9.65
C[N+]1(CC2COC3(CCCCC3)O2)CCCCC1.[I-] (stereo not drawn) | 4.38
COc1ccc(CSc2nnnn2-c2ccc(C(N)=O)cc2)cc1[N+](=O)[O-] | 18.4
CSCC[C@H](N)C(=O)NCC1CCC(C(=O)Nc2ccc3c(c2)OCO3)CC1 (stereo partly drawn) | 14.3
O=C(COC(=O)c1ccco1)NC1CCCC1 | 21.6
O=C(Nc1nc2ccccc2s1)c1cnccn1 | 9.97
O=C(NCc1ccco1)c1cccc(-c2nnc(-c3ccccc3)o2)c1 | -43
COc1ccc(OCC(=O)Nc2ncc3c(n2)CC(C)(C)CC3=O)cc1 | -8.64
O=c1[nH]c2cc3c(cc2cc1CN(CCCO)Cc1nnnn1Cc1ccc(F)cc1)OCO3 | -4.03
Cc1ccc(C(=O)N2CCN(C(=O)CN3CCOCC3)C2)cc1 | -3.7
COC(=O)c1cc(C(=O)c2ccc(Cl)cc2)n2c(=O)/c(=C\N(C)C)sc12 | 0.67
CCN1CCN(Cc2ccc(NC(=O)c3ccc(C)c(NC(=O)c4c[nH]c5cc(C(F)(F)F)ccc5c4=O)c3)cc2C(F)(F)F)CC1 | 9.65
CC(C)=CC(=O)O[C@H]1[C@@H]2[C@H](C)C(=O)O[C@@H]2C[C@@H](C)[C@@H]2[C@@H](O)CC(=O)[C@]21C | 22.4
CCOCCCn1c(C)nc2c(c1=O)c1nc3ccccc3nc1n2CCC1=CCCCC1 | -4.67
CCc1ccc(NC(=O)CSc2nc3[nH]ncc3c(=O)[nH]2)cc1 | 19.6
COC(=O)c1ccc(NS(=O)(=O)NC(=O)c2c[nH]c3ccccc23)cc1 | 20.2
Cc1cccc(C(=O)Nc2ccc(C(=O)/C=C/c3cccnc3)cc2)c1 | 8.97
Cc1ccc(C(=O)N/C(=C\c2ccc(-c3ccc(Br)cc3)o2)C(=O)NC2CCS(=O)(=O)C2)cc1 (stereo not drawn) | -5.68
O=C(NCc1cccnc1)c1ccc(Cn2c(=S)[nH]c3ccc(Br)cc3c2=O)cc1 | 13.7
